Reference: paper PMC9911399, “Two distinct binding modes provide the RNA-binding protein RbFox with extraordinary sequence specificity”
Substitutions are numbered along the chain they refer to; changes in the protein carry UniProt numbers. This is one part of the list.

T1: RBFOX1 RRM RbFoxmut (Fox-RRM*) (Homo sapiens, UniProt Q9NWB1 109-208, R118D;E147R;N151S;E152T)
T1 sequence: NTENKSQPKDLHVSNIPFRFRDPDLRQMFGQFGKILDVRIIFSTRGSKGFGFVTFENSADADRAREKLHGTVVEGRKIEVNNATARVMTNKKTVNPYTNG

B1: UUUAGGG (DNA:RNA)
RNA: GGGAGACCGGAAUUCAGAUUGUCCUUUAGGGUUAAAUCCCGUCGUAGCCACCA
DNA 1: CAATCTGAATTCCGGTCTCCC
DNA 2: TGGTGGCTACGACGGGATT
B2: GGAUCCU (DNA:RNA)
RNA: GGGAGACCGGAAUUCAGAUUGUCCGGAUCCUUUAAAUCCCGUCGUAGCCACCA
DNA 1: CAATCTGAATTCCGGTCTCCC
DNA 2: TGGTGGCTACGACGGGATT
B3: UACCAUU (DNA:RNA)
RNA: B2 RNA with G25U, G26A, A27C, U28C, C29A, C30U
DNA 1: CAATCTGAATTCCGGTCTCCC
DNA 2: TGGTGGCTACGACGGGATT
B4: GCACGAC (DNA:RNA)
RNA: B2 RNA with G26C, U28C, C29G, C30A, U31C
DNA 1: CAATCTGAATTCCGGTCTCCC
DNA 2: TGGTGGCTACGACGGGATT
B5: CAGUAAA (DNA:RNA)
RNA: B2 RNA with G25C, G26A, A27G, C29A, C30A, U31A
DNA 1: CAATCTGAATTCCGGTCTCCC
DNA 2: TGGTGGCTACGACGGGATT
B6: AUGGCGG (DNA:RNA)
RNA: B1 RNA with U25A, U27G, A28G, G29C
DNA 1: CAATCTGAATTCCGGTCTCCC
DNA 2: TGGTGGCTACGACGGGATT
B7: AAGUUCG (DNA:RNA)
RNA: B2 RNA with G25A, G26A, A27G, C29U, U31G
DNA 1: CAATCTGAATTCCGGTCTCCC
DNA 2: TGGTGGCTACGACGGGATT
B8: GCAUUAU (DNA:RNA)
RNA: B2 RNA with G26C, C29U, C30A
DNA 1: CAATCTGAATTCCGGTCTCCC
DNA 2: TGGTGGCTACGACGGGATT
B9: AUGAACA (DNA:RNA)
RNA: B1 RNA with U25A, U27G, G29A, G30C, G31A
DNA 1: CAATCTGAATTCCGGTCTCCC
DNA 2: TGGTGGCTACGACGGGATT
B10: UUCCUAG (DNA:RNA)
RNA: B1 RNA with U27C, A28C, G29U, G30A
DNA 1: CAATCTGAATTCCGGTCTCCC
DNA 2: TGGTGGCTACGACGGGATT
B11: ACAGCUC (DNA:RNA)
RNA: B2 RNA with G25A, G26C, U28G, C30U, U31C
DNA 1: CAATCTGAATTCCGGTCTCCC
DNA 2: TGGTGGCTACGACGGGATT
B12: GUGGCUG (DNA:RNA)
RNA: B2 RNA with G26U, A27G, U28G, C30U, U31G
DNA 1: CAATCTGAATTCCGGTCTCCC
DNA 2: TGGTGGCTACGACGGGATT
B13: ACUGGCA (DNA:RNA)
RNA: B1 RNA with U25A, U26C, A28G, G30C, G31A
DNA 1: CAATCTGAATTCCGGTCTCCC
DNA 2: TGGTGGCTACGACGGGATT
B14: GAGAACU (DNA:RNA)
RNA: B2 RNA with G26A, A27G, U28A, C29A
DNA 1: CAATCTGAATTCCGGTCTCCC
DNA 2: TGGTGGCTACGACGGGATT
B15: GCGUUCU (DNA:RNA)
RNA: B2 RNA with G26C, A27G, C29U
DNA 1: CAATCTGAATTCCGGTCTCCC
DNA 2: TGGTGGCTACGACGGGATT
B16: UGGACUG (DNA:RNA)
RNA: B1 RNA with U26G, U27G, G29C, G30U
DNA 1: CAATCTGAATTCCGGTCTCCC
DNA 2: TGGTGGCTACGACGGGATT
B17: AACCACU (DNA:RNA)
RNA: B2 RNA with G25A, G26A, A27C, U28C, C29A
DNA 1: CAATCTGAATTCCGGTCTCCC
DNA 2: TGGTGGCTACGACGGGATT
B18: GAGGCAG (DNA:RNA)
RNA: B2 RNA with G26A, A27G, U28G, C30A, U31G
DNA 1: CAATCTGAATTCCGGTCTCCC
DNA 2: TGGTGGCTACGACGGGATT
B19: AAUGGCU (DNA:RNA)
RNA: B2 RNA with G25A, G26A, A27U, U28G, C29G
DNA 1: CAATCTGAATTCCGGTCTCCC
DNA 2: TGGTGGCTACGACGGGATT
B20: CUAGGAC (DNA:RNA)
RNA: B1 RNA with U25C, U27A, A28G, G30A, G31C
DNA 1: CAATCTGAATTCCGGTCTCCC
DNA 2: TGGTGGCTACGACGGGATT
B21: GUGCAUG (DNA:RNA)
RNA: B1 RNA with U25G, U27G, A28C, G29A, G30U
DNA 1: CAATCTGAATTCCGGTCTCCC
DNA 2: TGGTGGCTACGACGGGATT
B22: AUGAAAG (DNA:RNA)
RNA: B1 RNA with U25A, U27G, G29A, G30A
DNA 1: CAATCTGAATTCCGGTCTCCC
DNA 2: TGGTGGCTACGACGGGATT
B23: CCUCUCG (DNA:RNA)
RNA: B1 RNA with U25C, U26C, A28C, G29U, G30C
DNA 1: CAATCTGAATTCCGGTCTCCC
DNA 2: TGGTGGCTACGACGGGATT
B24: CCUCGGG (DNA:RNA)
RNA: B1 RNA with U25C, U26C, A28C
DNA 1: CAATCTGAATTCCGGTCTCCC
DNA 2: TGGTGGCTACGACGGGATT
B25: GACCCAU (DNA:RNA)
RNA: B2 RNA with G26A, A27C, U28C, C30A
DNA 1: CAATCTGAATTCCGGTCTCCC
DNA 2: TGGTGGCTACGACGGGATT
B26: AUCCCAU (DNA:RNA)
RNA: B2 RNA with G25A, G26U, A27C, U28C, C30A
DNA 1: CAATCTGAATTCCGGTCTCCC
DNA 2: TGGTGGCTACGACGGGATT
B27: UGUAUAU (DNA:RNA)
RNA: B1 RNA with U26G, G29U, G30A, G31U
DNA 1: CAATCTGAATTCCGGTCTCCC
DNA 2: TGGTGGCTACGACGGGATT
B28: UCUGCCU (DNA:RNA)
RNA: B2 RNA with G25U, G26C, A27U, U28G
DNA 1: CAATCTGAATTCCGGTCTCCC
DNA 2: TGGTGGCTACGACGGGATT
B29: GACAGGA (DNA:RNA)
RNA: B1 RNA with U25G, U26A, U27C, G31A
DNA 1: CAATCTGAATTCCGGTCTCCC
DNA 2: TGGTGGCTACGACGGGATT
B30: UGUGUCA (DNA:RNA)
RNA: B2 RNA with G25U, A27U, U28G, C29U, U31A
DNA 1: CAATCTGAATTCCGGTCTCCC
DNA 2: TGGTGGCTACGACGGGATT
B31: GUCCCUA (DNA:RNA)
RNA: B2 RNA with G26U, A27C, U28C, C30U, U31A
DNA 1: CAATCTGAATTCCGGTCTCCC
DNA 2: TGGTGGCTACGACGGGATT

Target: T1, RBFOX1 RRM RbFoxmut (Fox-RRM*)
Assay: EMSA; HiTS-Eq, 1 nM pool, 10 min; buffer printed only for the single-RNA assays: 10 mM Tris pH 7.5, 150 mM NaCl, 3.4 mM EDTA, 0.001% NP-40, 30 C
Details: tags: His6 N-terminal (pET28a); label: 5' 32P
Method in brief: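 Purified wild-type or mutant RbFox RRM at increasing concentrations was equilibrated with 1 nM of 5′-radiolabelled RNA carrying 7 randomized nucleotides for 10 min in 50 µL. Unbound RNA was separated by 8% native PAGE and sequenced. Relative association constants came from read-count changes of each RNA species compared with the control reaction, normalised to the cognate motif.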

Binder | binding signal
B1 | 0.0837 KA relative to UGCAUGU
B2 | 0.113 KA relative to UGCAUGU
B3 | 0.0702 KA relative to UGCAUGU
B4 | 0.175 KA relative to UGCAUGU
B5 | 0.0932 KA relative to UGCAUGU
B6 | 0.105 KA relative to UGCAUGU
B7 | 0.185 KA relative to UGCAUGU
B8 | 0.141 KA relative to UGCAUGU
B9 | 0.111 KA relative to UGCAUGU
B10 | 0.105 KA relative to UGCAUGU
B11 | 0.063 KA relative to UGCAUGU
B12 | 0.549 KA relative to UGCAUGU
B13 | 0.16 KA relative to UGCAUGU
B14 | 0.0695 KA relative to UGCAUGU
B15 | 0.073 KA relative to UGCAUGU
B16 | 0.418 KA relative to UGCAUGU

Binder | binding signal
B17 | 0.0772 KA relative to UGCAUGU
B18 | 0.0835 KA relative to UGCAUGU
B19 | 0.111 KA relative to UGCAUGU
B20 | 0.0548 KA relative to UGCAUGU
B21 | 1.39 KA relative to UGCAUGU
B22 | 0.171 KA relative to UGCAUGU
B23 | 0.0748 KA relative to UGCAUGU
B24 | 0.0968 KA relative to UGCAUGU
B25 | 0.0589 KA relative to UGCAUGU
B26 | 0.0886 KA relative to UGCAUGU
B27 | 0.138 KA relative to UGCAUGU
B28 | 0.0943 KA relative to UGCAUGU
B29 | 0.0728 KA relative to UGCAUGU
B30 | 0.199 KA relative to UGCAUGU
B31 | 0.0703 KA relative to UGCAUGU
